{"source": "ChEMBL document CHEMBL4888484", "about": "“Replenishing the malaria drug discovery pipeline: Screening and hit evaluation of the MMV Hit Generation Library 1 (HGL1) against asexual blood stage Plasmodium falciparum ,using a nano luciferase reporter read-out” (2022)", "note": "Screen size: about 150,000 compounds; about 540 (0.36%) showed an effect of 50% or more. This is one part of the list.", "data": [{"tested_on": "Plasmodium falciparum", "assay": "Primary screen in NF54 nanoGlo assay, in single point, at 2uM, 72h; a lower Z score goes with more inhibition", "assay_type": "functional, Erythrocyte", "settings": "timepoint 72 hour", "units": {"% Inhibition": "%"}, "values": [{"smiles": "CC(C)(C)c1nsc(NCC2CCN(CC#N)CC2)n1", "% Inhibition": -8, "Z score": 1.48}, {"smiles": "Cc1nc(NCc2cccc3cnccc23)n(C)n1", "% Inhibition": -14, "Z score": 2.04}, {"smiles": "O=C(Nc1cnccc1O)c1ccc(N2CCc3ccccc3C2)cc1", "% Inhibition": -7, "Z score": 1.19}, {"smiles": "O=C(c1ccccc1Cl)N1CC(=O)N2CCc3ccccc3[C@@H]2C1", "% Inhibition": 3, "Z score": -0.44}, {"smiles": "c1ncn(C[C@H]2COC3(CCCCC3)O2)n1", "% Inhibition": -5, "Z score": 0.72}, {"smiles": "c1cnc(N2CCN(Cc3cnns3)CC2)nc1", "% Inhibition": -7, "Z score": 1}, {"smiles": "O=C(Nc1ccc(OC2CCC2)c(F)c1)N1CC[C@H](O)C1", "% Inhibition": 35, "Z score": -0.74}, {"smiles": "Cc1ccc2c(c1)N(S(=O)(=O)N1CCCC1)CCC2", "% Inhibition": 5, "Z score": -1.02}, {"smiles": "O=C(Cc1ccccc1Cl)N1CCc2[nH]nc(C(=O)N3CCN(c4ccc(F)cc4)CC3)c2C1", "% Inhibition": 42, "Z score": -5.61}, {"smiles": "COC(=O)CC1CCCN1C(=O)CC(O)COCc1ccccc1", "note": "(stereo not given)", "% Inhibition": -23, "Z score": 1.9}, {"smiles": "Cc1cc(CN(C)CCCc2ccccc2Cl)n[nH]1", "% Inhibition": -4, "Z score": 0.79}, {"smiles": "Cc1noc(C)c1CCC(=O)N(C)[C@H]1CCS(=O)(=O)C1", "% Inhibition": -12, "Z score": 1.31}, {"smiles": "c1c(C2CC2)noc1CN[C@H]1CCOC12CCCCC2", "% Inhibition": -14, "Z score": 2.34}, {"smiles": "C[C@]1(c2cccnc2)NC(=O)N(Cc2cc(C#N)ccc2F)C1=O", "% Inhibition": -13, "Z score": 1.76}, {"smiles": "C[C@H](NC(=O)c1ccccc1N1CCC(NC(=O)c2ccc(Cl)cc2)CC1)c1ccccc1", "% Inhibition": -3, "Z score": 0.37}, {"smiles": "CN(CCCNC(=O)[C@@H]1CC[C@H](C(=O)O)C1)c1ccccc1", "% Inhibition": 1, "Z score": -0.16}, {"smiles": "CCCNC(=O)CNc1c(Cl)cccc1C#N", "% Inhibition": -10, "Z score": 2}, {"smiles": "O=C(NC[C@H]1CCOC2(CCC2)C1)N1CCC=C(c2ccncc2)C1", "% Inhibition": -7, "Z score": 0.98}, {"smiles": "CCN([C@H]1CCCOC1)S(=O)(=O)c1cn(C)nc1C1CCCC1", "% Inhibition": -3, "Z score": 0.64}, {"smiles": "CC1(C)CC(C(=O)Nc2nc3nccnc3s2)C1", "% Inhibition": -5, "Z score": 0.99}, {"smiles": "CCc1ccccc1NC(=O)Cn1ccnc1CN1CCOCC1", "% Inhibition": -14, "Z score": 1.9}, {"smiles": "O=C1CC(c2ccccc2)N(C(=O)CCC2CCCO2)CCN1", "note": "(stereo not given)", "% Inhibition": -13, "Z score": 2.53}, {"smiles": "CCC(NS(=O)(=O)c1cccc2c1nnn2C)[C@H]1C[C@H](O)C1", "note": "(stereo not given in full)", "% Inhibition": -3, "Z score": 0.51}, {"smiles": "O=C(Cc1cccc2ccccc12)N1CCC(Cc2ccccc2)CC1", "% Inhibition": 9, "Z score": -1.32}, {"smiles": "COc1ccc2cc1Oc1cccc(c1)CO[C@H]1CCN(C(=O)CN3CCC(O)CC3)C[C@H]1NC(=O)CC2", "% Inhibition": -23, "Z score": 2.88}, {"smiles": "O=C(Nc1ccsc1-c1nc(C2CC2)no1)c1cc(C2CC2)on1", "% Inhibition": -10, "Z score": 1.87}, {"smiles": "COc1ccc2nc(C)c(C(=O)N3CC(=O)N(C)[C@@H](C)C3)n2n1", "% Inhibition": 3, "Z score": -0.47}, {"smiles": "Cc1n[nH]cc1CN[C@@H](CN1CCCC1=O)c1cccc(C(F)(F)F)c1", "% Inhibition": -9, "Z score": 1.1}, {"smiles": "CNc1ccccc1C(C)(C)c1cc[nH]n1", "% Inhibition": 30, "Z score": -3.4}, {"smiles": "C[C@@H](CCNC(=O)OC(C)(C)C)Nc1cnn(-c2ccncc2)c1", "% Inhibition": -15, "Z score": 2.18}, {"smiles": "CC1(C)C(O)CC1NC(=O)Nc1ccncn1", "note": "(stereo not given)", "% Inhibition": -8, "Z score": 1.55}, {"smiles": "CCC[C@H](C)c1c(-c2ccccc2)ncn1CCS(C)(=O)=O", "% Inhibition": -13, "Z score": 1.24}, {"smiles": "COC(=O)N1CC2CCC1C(c1noc(C(C)c3cnn(C)c3)n1)C2", "note": "(stereo not given)", "% Inhibition": -7, "Z score": 1.2}, {"smiles": "Cc1ccc(F)c(C(=O)NCc2c(C(=O)O)oc3ccccc23)c1", "% Inhibition": -2, "Z score": 0.21}, {"smiles": "COc1cc(Br)ccc1CCCN1CCCS1(=O)=O", "% Inhibition": -2, "Z score": 0.33}, {"smiles": "CCCC[C@@H]1C[C@@H]1C(=O)NCCc1noc(C(F)(F)F)n1", "% Inhibition": -7, "Z score": 1.35}, {"smiles": "COc1cccc(N2CCN(C(=O)c3ccc4c(c3)OCCO4)CC2)c1", "% Inhibition": -1, "Z score": 0.14}, {"smiles": "CCOc1ccccc1NC(=O)Cn1nc(-c2ccco2)n(C2CC2)c1=O", "% Inhibition": -18, "Z score": 2.03}, {"smiles": "c1ccc(-c2cccc(N3CCC(N4CCOCC4)CC3)c2)cc1", "% Inhibition": -8, "Z score": 1.36}, {"smiles": "CCc1noc(C)c1CNC(=O)N1CC[C@H](O)[C@@H](C2CCCC2)C1", "% Inhibition": 5, "Z score": -0.98}, {"smiles": "Cc1nc([C@H](C)N(C)S(=O)(=O)c2c(C)nn(C)c2Cl)c(C)s1", "% Inhibition": -19, "Z score": 2.61}, {"smiles": "OC[C@H]1CCCCN1CCNCc1c(Cl)cncc1Cl", "% Inhibition": -13, "Z score": 2.05}, {"smiles": "CCC(CC)(CC)C(=O)NC[C@H]1COCCN1Cc1ccc2c(c1)OCCO2", "% Inhibition": 19, "Z score": -2.44}, {"smiles": "O=C(NC[C@@H](O)Cc1ccc(F)cc1F)c1ccoc1", "% Inhibition": -18, "Z score": 3.41}, {"smiles": "O=C([C@H]1CC12CCN(CC1CC1)CC2)N1CCN(C/C=C/c2ccccc2)CC1", "% Inhibition": -6, "Z score": 1.23}, {"smiles": "CN(CCc1cnn(C)c1)Cc1ccc(Cl)o1", "% Inhibition": -1, "Z score": 0.13}, {"smiles": "CCCN1C(=O)c2ccccc2C(C(=O)N2CCC(C)CC2)C1c1cc(OC)c(OC)c(OC)c1", "note": "(stereo not given)", "% Inhibition": -6, "Z score": 0.68}, {"smiles": "C[C@H]1CN(C(=O)Cn2ccc(=O)[nH]c2=O)C[C@]1(O)C1CCC1", "% Inhibition": -9, "Z score": 1.17}, {"smiles": "c1ccc(OCCNC2CCN(c3ncnc4c3CCC4)CC2)cc1", "% Inhibition": -12, "Z score": 1.7}, {"smiles": "Cc1cc(CNC(=O)c2ccc3oc(N(C)C)nc3c2)n(C)n1", "% Inhibition": 6, "Z score": -0.69}, {"smiles": "CC[C@H](C)NC(=O)C(=O)NCCC1CCCC1", "% Inhibition": -4, "Z score": 0.44}, {"smiles": "CCn1nc(C(=O)O)c2c1CC[C@H](N1CCN(C/C=C/c3ccccc3)CC1)C2", "% Inhibition": -10, "Z score": 1.54}, {"smiles": "Cc1ccc(OCCN)c(C(=O)NC[C@H]2CN(S(C)(=O)=O)CCO2)c1", "% Inhibition": -7, "Z score": 0.97}, {"smiles": "O=C(c1cc(Cl)ccc1F)N1CCCC[C@@H]1CN1CCCC1", "% Inhibition": -18, "Z score": 2.27}, {"smiles": "O=S(=O)(Nc1cccc(-c2ccc(N3CCCCC3)nn2)c1)c1ccc(F)cc1F", "% Inhibition": -18, "Z score": 2.51}]}]}
